Test results from PubChem BioAssay AID488969 (Vanderbilt High Throughput Screening Facility, 2010).
Whole data set: some 110,000 compounds, median “z-score” near -0.1, cut for the highest 2% near 2. This is one part of the list.

target: Metabotropic glutamate receptor 8 (Rattus norvegicus) (UniProt P70579); test: mGluR8 Gi/Go-coupled signaling modulation – cell-based, rat, thallium flux, HTS, primary screen (AID 488969); conditions: HEK293 rat mGluR8, GIRK (G protein-gated inwardly rectifying potassium channel) thallium flux, FluoZin2; at 10 µM; stronger effect = higher value; submaximal glutamate (EC20) added with thallium
Sequence of UniProt P70579 (P70579 whole entry, looked up): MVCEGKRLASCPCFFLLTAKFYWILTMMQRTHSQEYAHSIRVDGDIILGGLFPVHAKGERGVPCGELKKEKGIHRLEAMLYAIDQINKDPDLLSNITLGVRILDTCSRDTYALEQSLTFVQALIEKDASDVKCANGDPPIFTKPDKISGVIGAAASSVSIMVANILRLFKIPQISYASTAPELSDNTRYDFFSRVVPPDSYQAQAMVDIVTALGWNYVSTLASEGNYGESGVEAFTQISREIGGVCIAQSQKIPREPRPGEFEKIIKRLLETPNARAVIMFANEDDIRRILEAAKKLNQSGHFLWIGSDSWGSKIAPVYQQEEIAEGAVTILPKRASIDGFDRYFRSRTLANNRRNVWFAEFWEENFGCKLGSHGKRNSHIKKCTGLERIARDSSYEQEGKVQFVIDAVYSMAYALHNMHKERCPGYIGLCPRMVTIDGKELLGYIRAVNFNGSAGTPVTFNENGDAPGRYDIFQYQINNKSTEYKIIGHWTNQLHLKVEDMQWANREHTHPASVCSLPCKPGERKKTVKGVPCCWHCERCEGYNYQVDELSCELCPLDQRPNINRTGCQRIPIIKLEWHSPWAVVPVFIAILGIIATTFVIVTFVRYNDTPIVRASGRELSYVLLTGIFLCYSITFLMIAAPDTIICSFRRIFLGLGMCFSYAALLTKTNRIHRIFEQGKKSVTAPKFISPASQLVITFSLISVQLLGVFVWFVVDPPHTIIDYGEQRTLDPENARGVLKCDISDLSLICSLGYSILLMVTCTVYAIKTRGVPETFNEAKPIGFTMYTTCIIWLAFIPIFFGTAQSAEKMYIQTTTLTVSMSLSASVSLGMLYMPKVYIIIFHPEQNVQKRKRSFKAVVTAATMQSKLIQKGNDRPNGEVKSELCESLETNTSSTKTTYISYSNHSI

| SMILES | z-score |
| --- | --- |
| Cc1ccc(-c2nnn(CC(=O)NC3CCCc4ccccc43)n2)cc1 (stereo not given) | 0.26 |
| Nc1nc(CSC(=S)N2CCOCC2)nc(Nc2ccccc2)n1 | 2.25 |
| COc1ccc(/C(N)=N/OC(=O)c2ccc(C)c([N+](=O)[O-])c2)cc1OC | -0.247 |
| CC(=O)c1c(C)[nH]c(C(=O)OCC(=O)N2c3ccccc3NC(=O)C2(C)C)c1C | -0.348 |
| O=C(Nc1cc(C(F)(F)F)ccc1N1CCOCC1)c1ccc(Br)o1 | 0.207 |
| CCCCNC(=O)C1C2C=CC3(CN(Cc4ccc(C)cc4)C(=O)C13)O2 (stereo not given) | 0.167 |
| O=C(N1CCOCC1)C1(c2ccccc2)CCCCC1 | 0.0973 |
| S=C1NCCOCCOCCOCCNC(=S)NCCOCCOCCOCCN1 | 1.93 |
| O=C(O)CCc1ccc(-c2ccc(F)cc2)n1Cc1ccco1 | 0.536 |
| COc1cccc(/C=N/Nc2nn3cnnc3c3ccccc23)c1 | -0.724 |
| O=C(/C=C/c1ccco1)Nc1ccccn1 | -0.373 |
| Cc1cc2ccccc2n1CCNC(=O)c1cccs1 | 0.56 |
| CCCc1cc(=O)[nH]c(SCC(=O)N2CCN(S(=O)(=O)c3ccc4ccccc4c3)CC2)n1 | -0.144 |
| Cc1cccc(C)c1N1CCN(S(=O)(=O)c2ccc(F)cc2)CC1 | -0.473 |
| CC(=O)Oc1ccccc1C1=NN(C(=O)/C=C/c2ccccc2)C(c2ccccc2)C1 (stereo not given) | 0.332 |
| O=C(NCc1ccccc1)c1ccc(S(=O)(=O)C(F)F)cc1 | -0.241 |
| N=c1n(CCO)c2ccccc2n1CCOc1ccccc1 | -0.208 |
| Cc1cccc(-c2noc(CCCC(=O)N3CCOCC3)n2)c1 | -0.139 |
| Cc1cccc(NC(=O)COc2ccc(Br)cc2)n1 | -0.0989 |
| O=S(=O)(c1ccc(-c2nc3ccccc3s2)cc1)N1CCCC1 | -0.109 |
| Cc1ccc(Oc2cc([N+](=O)[O-])cc3c2C(=O)Nc2ccccc2O3)cc1 | -0.0885 |
| Cc1ccc2nc(N/N=C\c3ccc([N+](=O)[O-])o3)nc(-c3ccccc3)c2c1 | -1.26 |
| COc1ccc(CNC(=O)C2CCN(C(=O)N3CCOc4ccc(C)cc43)CC2)cc1 | -0.187 |

| SMILES | z-score |
| --- | --- |
| CCc1cc2c(=O)[nH]c(Cc3ccc(Cl)cc3)nc2s1 | -0.162 |
| O=C(Cn1nc(-c2ccc(F)cc2)ccc1=O)Nc1ccc(C(=O)NC2CC2)cc1 | -0.149 |
| CN1CCN(CCCNC(=O)c2cn(C3CCCCC3)c(=O)c3c2c2ccccc2n3C)CC1 | -0.464 |
| O=C1CCCC/C1=C/Nc1ccc(C(=O)O)cc1 | 0.258 |
| Cc1cc2ccccc2n1CCNC(=O)C1CCCCC1 | -0.273 |
| CCOC(=O)/C(C#N)=C/c1ccc(N2CCN(Cc3ccccc3)CC2)cc1 | -0.69 |
| CCOc1cc(S(=O)(=O)NCc2cccs2)ccc1Cl | 0.0948 |
| N#C/C(=C\Nc1ccccc1O)c1nc2ccccc2o1 | -0.706 |
| COc1ccc(NC(=O)CC(C)C)c(OC)c1 | 0.164 |
| CCCCC(=O)Nc1cccc(NC(=O)c2ccccc2Br)c1 | -0.164 |
| Cc1cc(NC(=O)Cc2c(F)cccc2Cl)no1 | -0.0951 |
| CCN1CCCC1CNC(=O)c1cc2c(-c3ccc(Cl)cc3)nn(C)c2s1 (stereo not given) | 0.368 |
| NC(N)=N/N=C/c1cc([N+](=O)[O-])ccc1O | -0.192 |
| Cc1ccc(S(=O)(=O)Nc2ccccc2CNc2ccccn2)cc1 | -0.344 |
| Cc1c(NC2=CC(=O)CC(C)(C)C2)ccc([N+](=O)[O-])c1C | -0.155 |
| CCOC(=O)C1CCCN(C(=O)C2CCCN(S(=O)(=O)c3ccc4c(c3)oc(=O)n4C)C2)C1 (stereo not given) | -0.171 |
| CCn1c(NC(=O)c2ccccc2)c(-c2cccs2)c(=O)c2ccccc21 | -0.172 |
| CC1Cc2ccccc2N1C(=O)CSc1ncccc1C(=O)O (stereo not given) | -0.775 |
| O=C(c1ccc(-n2cccc2)cc1)N1CCOCC1 | -0.0309 |
| COc1ccc(C(=O)Nn2cc3c(c2-c2ccccc2)c(=O)n(C)c(=O)n3C)cc1 | -0.234 |
| COC(=O)COn1c(-n2nc(C)cc2C)nc2ccccc2c1=O | 0.132 |
| CN(C)CCCNc1c(C(=O)O)cnc2c1cnn2C | 1.05 |
| Cc1ccc2nc(SCn3nnc4ccccc4c3=O)[nH]c2c1 | -0.387 |

| SMILES | z-score |
| --- | --- |
| CN(C)/C=C1/C(=O)N(c2ccc([N+](=O)[O-])cc2)N=C1c1ccccc1 | -0.0763 |
| NC(CC(=O)O)c1ccc(F)cc1 (stereo not given) | -0.194 |
| O=C(CN1c2cccc3cccc(c23)S1(=O)=O)Nc1cccc(S(=O)(=O)N2CCOCC2)c1 | -0.62 |
| Cc1nc(NC(=O)C2CCCCC2)sc1C | -0.106 |
| CCOC(=O)c1c(NC(=O)c2ccc(N3CCOCC3)c([N+](=O)[O-])c2)sc(C)c1C | -0.155 |
| CC(C)(C)c1cc(C(=O)N/N=C/c2ccco2)n[nH]1 | 0.799 |
| CC(C)(C)c1cc(NC(=O)CCSc2nnc3ccccn23)cc(C(C)(C)C)c1 | 0.547 |
| COc1ccc(CCn2c(C)cc(C(=O)CSc3nc(N)cc(=O)[nH]3)c2C)cc1 | 0.024 |
| COc1c(S(=O)(=O)N2CCN(c3ccc(F)cc3)CC2)ccc(Cl)c1Cl | -0.0316 |
| C/C(=C\c1ccccc1)C(=O)N1CCN(c2cccc(C(F)(F)F)c2)CC1 | -0.915 |
| CC(=O)NC1C(=O)N=C(SCC(=O)NCc2ccccc2)NC1=O (stereo not given) | -0.0811 |
| CCN(C(=O)Cn1c(=O)n(Cc2ccccc2)c(=O)c2ccccc21)c1cccc(C)c1 | 0.022 |
| COC(=O)C(CC(C)C)NC(=O)c1ccc(F)cc1 (stereo not given) | -0.19 |
| N#CC1=C2SCN(c3ccccc3)CN2C(=O)CC1c1ccccc1Cl (stereo not given) | -0.488 |
| CCCN(CC1CC1)C(=O)Nc1ccccc1C | -0.0726 |
| COc1ccc(C2(C(=O)NCC3CCCO3)CCOCC2)cc1 (stereo not given) | 0.0307 |
| CCc1nc(N2CCC3(CC2)OCCO3)c2nnn(Cc3ccccc3Cl)c2n1 | 0.168 |
| CC(C)COC(=S)Nc1ccccc1 | 1.57 |
| O=C(COC(=O)c1ccccc1)NCc1ccco1 | -0.212 |
| COc1ccc(C(=O)NCC(=O)NCC(c2ccco2)N(C)C)cc1OC (stereo not given) | -0.458 |
| COc1ccccc1N(CC(O)Cn1c(C)nc2ccccc21)S(=O)(=O)c1ccccc1 (stereo not given) | 0.528 |
| CCOC(=O)c1c(C)c(-c2ccccc2)n(CC(=O)N2CCN(C)CC2)c1C | -0.787 |
| CC(C)COC(=O)c1cc(-c2ccc(/C=N/n3cnnc3)o2)ccc1Cl | -1.65 |

| SMILES | z-score |
| --- | --- |
| Fc1ccc(-c2csc(N3CCC(c4ccccc4)C3)n2)cc1 (stereo not given) | 0.0157 |
| Cc1ccc(NC(=O)CC2S/C(=N/c3nccs3)N(C)C2=O)c(C)c1 (stereo not given) | -0.0538 |
| CCN(CC)S(=O)(=O)c1ccc(-c2nnc(SC)o2)cc1 | -0.478 |
| CCCCOc1ccc(CC(=O)NCC(=O)O)cc1 | -0.116 |
| CCOC(=O)CNC(=O)c1c2c(nc3ccccc13)CCCC2 | 1 |
| Cc1cc(C)n(-c2nc(-c3ccc(Cl)cc3)cs2)n1 | 0.189 |
| COc1ccc(OCC(=O)Nc2cc(C)c(Cl)cc2OC)c([N+](=O)[O-])c1 | 0.0573 |
| c1csc(-c2nn3c(Cn4nnc5ccccc54)nnc3s2)c1 | 0.0104 |
| N#Cc1nc(-c2cccc3ccccc23)oc1N1CCCCC1 | 0.333 |
| Cc1ccccc1-c1nc(-c2ccc(NC(=O)c3cccs3)cc2)no1 | -0.227 |
| O=C(Nc1ccccc1)N1CCCC1 | 0.00511 |
| CC1=NN(C(=O)COc2ccccc2C)C(O)(c2ccc(Cl)cc2)C1 (stereo not given) | -0.867 |
| COc1ccccc1NCc1nnc(SCC(=O)N/N=C/c2ccco2)n1-c1ccc(Cl)cc1Cl | -0.0928 |
| CN(C)c1ccc(/C=N/NC(=O)C(O)(c2ccccc2)c2ccccc2)o1 | -0.0525 |
| O=C(/C=C/c1ccco1)Nc1ccc(C(=O)N2CCOCC2)cc1 | -0.294 |
| CCOC(=O)C(C(=O)OCC)C(C)(C)/C(C)=N\Nc1ccc([N+](=O)[O-])cc1[N+](=O)[O-] | -0.237 |
| S=C(N/N=C/c1ccccc1)N1CCOCC1 | 2.65 |
| CCCNS(=O)(=O)c1ccc(NC(=O)c2ccccn2)cc1 | -0.761 |
| O=C(O)CCNc1nc(-c2ccccc2)nc2ccccc12 | -0.0115 |
| Cc1ccc(-c2cc(C(=O)N3N=C(C(F)F)CC3(O)C(F)F)c3ccccc3n2)cc1C (stereo not given) | 0.0179 |
| COc1ccccc1C(=O)NC(CCSC)C(=O)OCC(=O)c1ccc[nH]1 (stereo not given) | -0.348 |
| CCOc1ccc(N2CC(C(=O)Nc3ccc(S(=O)(=O)N4CCOCC4)cc3)CC2=O)cc1 (stereo not given) | -0.198 |
| COc1cccc(CNC(=O)CN(c2cc(C)cc(C)c2)S(=O)(=O)c2c(C)noc2C)c1 | 2.13 |

| SMILES | z-score |
| --- | --- |
| COC(=O)c1[nH]c2cccc(OC)c2c1NC(=O)CCN1CCC(C)CC1 | 0.279 |
| COc1ccc(COCC(O)CN2CCOCC2)cc1OC (stereo not given) | 1.61 |
| CCCn1c(CCNC(=O)c2cccs2)nc2ccccc21 | -0.594 |
| CCc1ccc2oc(C(=O)NCc3ccncc3)c(C)c2c1 | 0.126 |
| Clc1ccccc1CSc1ncccn1 | -0.903 |
| O=C1CCCc2nc(N3CCCCC3)sc21 | -0.041 |
| O=C(O)c1ccccc1C(=O)N1CC=C(c2ccccc2)CC1 | 0.0308 |
| O=C(c1ccc(CNc2c(NC3CCCCC3)c(=O)c2=O)cc1)N1CCc2ccccc21 | -0.164 |
| Cc1ccc(N/C=C(/C#N)c2ccsc2)cc1 | -0.431 |
| Cc1noc(COc2ccc(OCc3nc(C)no3)cc2)n1 | -0.0271 |
| COc1ccc2c(c1)[nH]c1c(=O)n(Cc3ccccn3)cnc12 | -0.21 |
| O=C(Cc1cccs1)Nc1ccccc1C(=O)O | -0.535 |
| CSC(=NC#N)N1CCN(c2cccc(Cl)c2)CC1 | 0.268 |
| COc1ccc(OCC(=O)N/N=C/c2ccsc2)cc1 | 0.604 |
| CCCCC(=O)NC(=S)Nc1cccc(NC(=O)CC)c1 | -0.0414 |
| Cc1occc1-c1nc(-c2ccccn2)no1 | 1.37 |
| N#CC1=C2SCCN2C(=O)C(C#N)C12CCCCC2 (stereo not given) | -0.399 |
| Cc1ccccc1CNc1nc(N)n(-c2ccccc2)n1 | -0.307 |
| COc1cc(S(=O)(=O)Nc2ccccc2C)ccc1Cl | -0.268 |
| c1ccc2[nH]c(CN3CCCCCC3)nc2c1 | -0.169 |
| CCOc1ccc(CCNC(=O)C2CCN(C(=O)N(C)C)CC2)cc1OCC | 0.862 |
| CSc1ccc(Cc2ccc(Cl)cc2Cl)nn1 | -0.154 |
| COc1ccc(CCNC(=O)c2ccncc2)cc1OC | -0.0662 |
